# The supplement of paper PMC9135407
# Values joined by “and” are separate entries in the source; they are usually repeats but may differ in a detail not shown here. Equal entries are not always repeated. Structures can show the parent of a compound that is named as a salt. In all, about 5,800 compounds went through this assay and about 620 (11%) showed activity.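 The calls were made as follows: active = score above a cut-off or among the top three wells of a plate; in these data no inactive exceeds 0.85.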 The list shows a part of the results, in another mix than the full data.
# Tested on: primary human hepatic stellate cells (donor 1)
# Assay: scaled lipid accumulation score (0 = DMSO-like, 1 = nortriptyline-like); higher = stronger HSC inactivation (lipid re-accumulation), active = hit call of the paper
# Conditions: 48 h
# [1] = library stock concentration: 10 mM
# [2] = library stock concentration: 3.33 mM
# [3] = library stock concentration: 1 mM
# [4] = library stock concentration: 2 mM
# [5] = library stock concentration: 4.8 mM
smiles,measurement,setting,value
S=C=Nc1cccc(C2(N3CCCCC3)CCCCC2)c1 [Metaphit],scaled lipid accumulation score,[1],active: 0.949
FC(F)(F)c1cccc(C2=CCN(CCc3ccc4ccccc4c3)CC2)c1 [Xaliproden hydrochloride],scaled lipid accumulation score,[1],inactive: 0.229
CC1(C)[C@@H](O)C[C@H]2[C@](C)(O)[C@@H]3CC[C@@H]4[C@@H](O)[C@@]3(C[C@@H](O)[C@@]21O)C[C@@]4(C)O [Grayanotoxin III],scaled lipid accumulation score,library stock concentration: 13.5 mM,inactive: ≤ -0.021
Nc1ccc([As](=O)(O)O)cc1 [Arsanilic acid],scaled lipid accumulation score,library stock concentration: 9.2 mM,inactive: 0.028
O=c1[nH]c2ccc(Cl)cc2c(N[C@@H]2CN3CCC2CC3)c1-c1nc2ccccc2[nH]1,scaled lipid accumulation score,[2],inactive: 0.158
same,scaled lipid accumulation score,[1],inactive: 0.485
c1cc(N2CCNCC2)c2cnccc2c1 [8-piperazin-1-yl-Isoquinoline (hydrochloride)],scaled lipid accumulation score,[3],inactive: 0.005
CCCCCCCC/C=C\CCCCCCCC(=O)N[C@H](C)CO,scaled lipid accumulation score,[3],inactive: 0.021
COP(=S)(OC)Oc1cc(Cl)c(Cl)cc1Cl [Ronnel],scaled lipid accumulation score,library stock concentration: 6.2 mM,inactive: ≤ 0
NCCc1c[nH]c2ccc(C(N)=O)cc12 [5-Carboxamidotryptamine maleate],scaled lipid accumulation score,[1],inactive: ≤ -0.07 and inactive: 0.054
N#CC(C#N)=Cc1ccc([N+](=O)[O-])c(O)c1,scaled lipid accumulation score,[3],inactive: ≤ 0
N#CC(C#N)=Cc1ccc([N+](=O)[O-])c(O)c1 [Tyrphostin AG-126],scaled lipid accumulation score,library stock concentration: 23.2 mM,inactive: ≤ -0.012
CCN(CC)C(=O)c1ccc(C2=CC3(CCNCC3)Oc3cccc(O)c32)cc1,scaled lipid accumulation score,[2],inactive: ≤ 0
same,scaled lipid accumulation score,[1],inactive: 0.271
CC[C@H]1CN2CCc3cc(OC)c(OC)cc3[C@@H]2C[C@@H]1C[C@H]1NCCc2cc(OC)c(OC)cc21.Cl.Cl [Emetine dihydrochloride],scaled lipid accumulation score,,active: 0.98
O=S1(=O)N(CCN2CC=C(c3c[nH]c4cc(F)ccc34)CC2)c2cccc3c2N1CCC3,scaled lipid accumulation score,[1],inactive: 0.128
"Clc1ccc(N2CCN(Cc3c[nH]c4ncccc34)CC2)cc1 [L-745,870 trihydrochloride]",scaled lipid accumulation score,[1],inactive: 0.37
CN=C(NS(=O)(=O)c1ccc(Cl)cc1)N1CC(c2ccccc2)C(c2ccc(Cl)cc2)=N1 (centres undefined),scaled lipid accumulation score,[3],inactive: ≤ 0
"O=[N+]([O-])c1ccc(O)c([N+](=O)[O-])c1 [2,4-dinitrophenol]",scaled lipid accumulation score,[1],inactive: ≤ 0
CC1OC(OC2/C=C/C=C/C=C/C=C/CC/C=C/C=C/[C@H](C)[C@@H](O)[C@@H](C)[C@H](C)OC(=O)CC(O)CC(O)CC(O)CCC(O)C(O)C[C@]3(O)CC(O)C(C(=O)O)C(C2)O3)C(O)C(N)C1O (some centres undefined) [Nystatine],scaled lipid accumulation score,,inactive: ≤ 0
CN1CCN(c2ccc3ccccc3n2)CC1 [N-Methylquipazine dimaleate],scaled lipid accumulation score,[1],inactive: 0.327
NCCCNCCSP(=O)(O)O [Amifostine],scaled lipid accumulation score,library stock concentration: 9.3 mM,inactive: ≤ 0
same,scaled lipid accumulation score,[1],inactive: ≤ 0
CCC(=O)O[C@H]1CC[C@H]2[C@@H]3CCC4=CC(=O)CC[C@]4(C)[C@H]3CC[C@]12C [Testosterone propionate],scaled lipid accumulation score,,inactive: ≤ 0
same,scaled lipid accumulation score,library stock concentration: 5.8 mM,inactive: 0.578
same,scaled lipid accumulation score,[1],inactive: 0.536
CC([C@H](O)c1ccccc1)N(C)C (some centres undefined),scaled lipid accumulation score,[1],inactive: 0.129
CCOc1cncc(/C=C/CCNC)c1 [TC 2559 difumarate],scaled lipid accumulation score,[1],inactive: ≤ -0.001
COc1ccc(OC)c(C(O)C(C)N)c1 (centres undefined) [Methoxamine hydrochloride],scaled lipid accumulation score,,inactive: ≤ 0
same,scaled lipid accumulation score,library stock concentration: 8.1 mM,inactive: 0.032
same,scaled lipid accumulation score,[1],inactive: ≤ 0 and inactive: ≤ -0.055
Ic1cncc(OC[C@@H]2CCN2)c1,scaled lipid accumulation score,[1],inactive: ≤ -0.006
Cc1sc2c(c1C)C(c1ccc(Cl)cc1)=N[C@@H](CC(=O)OC(C)(C)C)c1nnc(C)n1-2,scaled lipid accumulation score,library stock concentration: 80 uM,inactive: ≤ 0
same,scaled lipid accumulation score,library stock concentration: 400 uM,inactive: ≤ 0
same,scaled lipid accumulation score,[4],inactive: ≤ 0
same,scaled lipid accumulation score,[2],inactive: ≤ -0.009
same,scaled lipid accumulation score,[1],inactive: 0.034 and inactive: ≤ 0
"COC(=O)[C@]1(O)C[C@@H]2O[C@@]1(C)n1c3ccccc3c3c4c(c5c6ccccc6n2c5c31)C(=O)NC4 [K-252a, Nocardiopsis sp.]",scaled lipid accumulation score,[2],inactive: 0.362
"C=CCN1CC[C@]2(C)c3cc(O)ccc3C[C@H]1C2C (single isomer, unassigned; (+))",scaled lipid accumulation score,[1],inactive: 0.02
CN1C2CC(=O)CC1C(O)C2 (centres undefined) [6-Hydroxytropinone],scaled lipid accumulation score,,inactive: ≤ 0
C[C@@H]1CC[C@]2(NC1)O[C@H]1C[C@H]3[C@@H]4CC=C5C[C@@H](O)CC[C@]5(C)[C@H]4CC[C@]3(C)[C@H]1[C@@H]2C [Solasodine],scaled lipid accumulation score,,inactive: ≤ 0
same,scaled lipid accumulation score,[1],inactive: ≤ -0.027
O=C(CCCN1CCC(n2c(=O)[nH]c3ccccc32)CC1)c1ccc(F)cc1 [Benperidol],scaled lipid accumulation score,,inactive: 0.202
O=C1CCO1 [Beta-propiolactone],scaled lipid accumulation score,[1],inactive: ≤ -0.027
same,scaled lipid accumulation score,library stock concentration: 27.8 mM,inactive: ≤ 0
CCC(Oc1ccc(Cl)cc1)C(=O)OC1CC2CCC(C1)N2C.O=C(O)/C=C\C(=O)O (centres undefined) [SM-21 maleate],scaled lipid accumulation score,[1],active: 0.886
C[C@]12CC[C@H](O)C[C@H]1CC[C@@H]1[C@@H]2CC[C@]2(C)[C@@H](C3=CC(=O)OC3)CC[C@]12O [Digitoxigenin],scaled lipid accumulation score,,active: 0.936
O=C1C2CCN(CC2)C1(CO)CO,scaled lipid accumulation score,[3],inactive: ≤ 0
same,scaled lipid accumulation score,[1],inactive: 0.045
COc1cc2c(cc1O)C[C@H]1c3c(cc(O)c(OC)c3-2)CCN1C [Boldine],scaled lipid accumulation score,,inactive: 0.014
C[C@H]1CC[C@]2(NC1)O[C@H]1C[C@H]3[C@@H]4CC[C@H]5C[C@@H](O[C@@H]6O[C@H](CO)[C@H](O[C@@H]7O[C@H](CO)[C@@H](O)[C@H](O[C@@H]8OC[C@@H](O)[C@H](O)[C@H]8O)[C@H]7O[C@@H]7O[C@H](CO)[C@@H](O)[C@H](O)[C@H]7O)[C@H](O)[C@H]6O)CC[C@]5(C)[C@H]4CC[C@]3(C)[C@H]1[C@@H]2C [Tomatine],scaled lipid accumulation score,,inactive: 0.319
COc1ccc(C(=O)OC2C[C@H]3CC[C@@H](C2)N3C)cc1OC (some centres undefined) [Convolamine hydrochloride],scaled lipid accumulation score,,inactive: 0.027
CCc1cc2c(s1)-n1c(C)nnc1CN=C2c1ccccc1Cl [Etizolam],scaled lipid accumulation score,[2],inactive: ≤ 0
same,scaled lipid accumulation score,[1],inactive: ≤ -0.001
C(=C\c1ccccc1)/CN1CCN(CCOC(c2ccccc2)c2ccccc2)CC1,scaled lipid accumulation score,[1],inactive: 0.301
"CCCC[N+]1(C)[C@@H]2C[C@@H](OC(=O)[C@H](CO)c3ccccc3)C[C@H]1[C@@H]1O[C@@H]12 (single isomer, unassigned; (-)) [(-)-Scopolamine,n-Butyl-, bromide]",scaled lipid accumulation score,[1],inactive: ≤ 0
"CCCC[N+]1(C)[C@@H]2C[C@@H](OC(=O)[C@H](CO)c3ccccc3)C[C@H]1[C@@H]1O[C@@H]12 (single isomer, unassigned; (-)) [Butylscopolamine Bromide]",scaled lipid accumulation score,[2],inactive: 0.04
same,scaled lipid accumulation score,[1],inactive: 0.081
C[C@@H]1CN([C@H]2CC[C@](C#N)(c3ccc(F)cc3)CC2)CC[C@]1(C(=O)O)c1ccccc1 [Levocabastine HCl],scaled lipid accumulation score,[5],inactive: 0.001
C[C@@H]1CN([C@H]2CC[C@](C#N)(c3ccc(F)cc3)CC2)CC[C@]1(C(=O)O)c1ccccc1 [Levocabastine hydrochloride],scaled lipid accumulation score,,inactive: ≤ 0
C[N+]1(C)C2CCC1CC(OC(=O)c1c[nH]c3ccccc13)C2 (centres undefined) [3-Tropanylindole-3-carboxylate methiodide],scaled lipid accumulation score,[1],inactive: ≤ 0
N#C/C(=C\c1ccc(O)c(O)c1)C(N)=S [Tyrphostin 47],scaled lipid accumulation score,[1],inactive: ≤ 0
N#C/C(=C\c1ccc(O)c(O)c1)C(N)=S [AG213 (Tyrphostin 47)],scaled lipid accumulation score,library stock concentration: 22.7 mM,inactive: 0.005
c1ccc2sc(C3(N4CCCCC4)CCCCC3)cc2c1 [BTCP hydrochloride],scaled lipid accumulation score,[1],inactive: 0.74
c1ccc2sc(C3(N4CCCCC4)CCCCC3)cc2c1 [BTCP maleate],scaled lipid accumulation score,[1],inactive: 0.248
COc1cc(N)c(Cl)cc1C(=O)NC1CN2CCC1CC2 (centres undefined) [Zacopride hydrochloride],scaled lipid accumulation score,[1],inactive: ≤ -0.006
COc1cc(N)c(Cl)cc1C(=O)NC1CN2CCC1CC2 (centres undefined) [Zacopride],scaled lipid accumulation score,[1],inactive: ≤ 0
COc1cc(OC)c(OC)cc1C=O [Asaraldehyde],scaled lipid accumulation score,[2],inactive: 0.002
same,scaled lipid accumulation score,[1],inactive: ≤ 0
COc1cc(OC)c(OC)cc1C=O [Asarylaldehyde],scaled lipid accumulation score,[1],inactive: 0.084
C[N+]1(C)CCCC(OC(=O)C(O)(c2ccccc2)c2ccccc2)C1 (centres undefined) [Mepenzolate bromide],scaled lipid accumulation score,,inactive: ≤ 0
same,scaled lipid accumulation score,[5],inactive: ≤ -0.001
same,scaled lipid accumulation score,[1],inactive: ≤ 0
C[N+]1(C)CCCC(OC(=O)C(O)(c2ccccc2)c2ccccc2)C1 (centres undefined) [Cantil],scaled lipid accumulation score,[1],inactive: ≤ 0
C#CC(C)(O)CC (centres undefined),scaled lipid accumulation score,[1],inactive: ≤ 0
CN1C2CCC1CC(O)C2 (centres undefined) [Tropine],scaled lipid accumulation score,,inactive: ≤ 0
O=C1C=C2C(C(C)=C1O)=CC=C3[C@]2(CCC4([C@@H]5C[C@@](CC[C@@]5(CC[C@]34C)C)([C@@](O)=O)C)C)C (some centres undefined) [Celastrol],scaled lipid accumulation score,[4],active: 1.14
same,scaled lipid accumulation score,[1],active: 1.14
COc1ccc(CNC(=O)/C=C/c2ccc3[nH]cc(CCN(C)C)c3c2)cc1,scaled lipid accumulation score,[1],active: 1.03
NC1CCc2cc(O)c(O)cc2C1 (centres undefined),scaled lipid accumulation score,library stock concentration: 27.9 mM,inactive: 0.022
"NC1CCc2cc(O)c(O)cc2C1 (centres undefined) [6,7-ADTN hydrobromide]",scaled lipid accumulation score,[1],inactive: ≤ -0.07
COc1ccc2[nH]cc(C3=CCNCC3)c2c1.COc1ccc2[nH]cc(C3=CCNCC3)c2c1.O=C(O)CCC(=O)O,scaled lipid accumulation score,[1],active: 1.68
Cc1sc2c(c1C)C(c1ccc(Cl)cc1)=NC(CC(N)=O)c1nnc(C)n1-2 (centres undefined),scaled lipid accumulation score,[2],inactive: ≤ -0.009
same,scaled lipid accumulation score,[1],inactive: 0.039
